The whole screen tested about 43,000 compounds, of which about 200 (0.47%) were called active. The inconclusive results got no clear call from the source; some entries with a clear call stand among them for comparison. The call rests on the fitted dose curve; in most records, active means well fitted cell-killing curve with a large enough effect; inconclusive means small, poorly fitted or top-dose-only effect, or effect the other way; inactive means flat fitted curve, though single readings scatter. Where the call is inconclusive, the potency comes from a doubtful curve fit.
experiment: Cell viability qHTS assay in S16 Pmp22-F2sN cells; settings: S16 Pmp22-F2sN Schwann cells (luciferase reporters placed in the Pmp22 gene) viability, CellTiter-Glo, 24 h; activity change, negative = cytotoxicity: at 57.5 µM (top of the series); further: nearly all actives have a fitted effect of over 65% in size
Outline: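 S16 Schwann cells carrying the Pmp22-F2sN reporter, seeded in 1536-well format, were exposed to library compounds for 24 h at 37C. Viability was read as CellTiter-Glo luminescence after 15 min at room temperature.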
On the % scale 0 is the no-effect control and ±100 the full control effect; potency means the concentration at half of the fitted maximal effect; tags describe the fitted curve by direction and shape.

SMILES | activity change, negative = cytotoxicity | Potency
CCOc1ccc(C2C=C(c3cccc(OC)c3)Nc3nnnn32)cc1 (stereo not given) | inactive: 9.92% | –
C#CCN1C(=O)C(O)(CC(=O)c2ccc(OC)c(OC)c2)c2cc(Br)ccc21 (stereo not given) | – | inconclusive: 7.08 µM [cytotoxic, full curve, poor fit]
Cc1ccc(Oc2nc3c(c(=O)n(Cc4ccccc4)c(=O)n3C)n2C)cc1C | – | inconclusive: 14.1 µM [cytotoxic, partial curve]
O=C(Cn1c(-c2cccs2)cc2ccccc21)NCCCN1CCN(c2ccc(F)cc2)CC1 | inactive: -10.4% | –
CC1CCCN(Cc2c(O)ccc3c(=O)c(-c4ccccc4Cl)c(C(F)(F)F)oc23)C1 (stereo not given) | – | inconclusive: 12.6 µM [rising, partial curve, poor fit]
O=C(NC1CCCC1)c1ccc(CSc2nc3cccnc3n2Cc2ccccc2F)cc1 | – | inconclusive: 39.8 µM [cytotoxic, single point]
CC(=O)c1ccc(NC(=O)CSc2nnc(NC(=O)NC3CCCCC3)s2)cc1 | inactive: 8.01% | –
COc1ccc(NCc2cccn2-c2nnc(N3CCC(C)CC3)s2)c(OC)c1 | – | inconclusive: 28.2 µM [cytotoxic, single point]
COc1c(Cl)cc(Cl)cc1C(=O)Nc1cccc2cccnc12 | inactive: 3.69% | –
COc1ccc(S(=O)(=O)N2CCC(c3nnnn3-c3ccccc3)CC2)cc1OC | – | inconclusive: 39.8 µM [cytotoxic, single point]
Cc1cccc(S(=O)(=O)c2cn(Cc3ccc(F)cc3)c3cc(N4CCOCC4)c(F)cc3c2=O)c1 | – | inconclusive: 3.16 µM [cytotoxic, full curve, poor fit]
COc1ccc(C(=O)CC2(O)C(=O)N(CCc3ccccc3)c3ccc(Br)cc32)cc1OC (stereo not given) | – | inconclusive: 25.1 µM [cytotoxic, single point]
NC(=O)C1CCN(c2ncnc3c2cnn3-c2cccc(Cl)c2)CC1 | inactive: 3.17% | –
CC(C)COc1ccc(C(=O)Nc2onc3c2CCCC3)cc1 | – | inconclusive: 0.0158 µM [rising, single point]
COc1cccc(/C=C/c2nc(C#N)c(N3CCCCCC3)o2)c1 | – | inconclusive: 39.8 µM [cytotoxic, single point]
CCOC(=O)c1cnn2c(C(F)(F)F)cc(-c3ccc(Br)cc3)nc12 | – | inconclusive: 25.1 µM [cytotoxic, partial curve, poor fit]
COc1ccc(-c2cnc(C)o2)cc1S(=O)(=O)Nc1cccc(C(F)(F)F)c1 | – | inconclusive: 25.1 µM [cytotoxic, partial curve, poor fit]
COc1ccccc1C(=O)Nc1cccc(C(=O)OCc2cc(=O)n3nc(C4CC4)sc3n2)c1 | inactive: 4.8% | –
CC1CCCN(CCCNC(=O)c2ccc3c(c2)N(Cc2cccc(Cl)c2)C(=O)c2ccccc2S3(=O)=O)C1 (stereo not given) | – | inconclusive: 20 µM [cytotoxic, single point]
COc1cccc(CNC(=O)Cn2ccc3cc(S(=O)(=O)N4CCCC4)ccc32)c1OC | inactive: -3.29% | –

SMILES | activity change, negative = cytotoxicity | Potency
Cc1nc(-c2cccc(F)c2)sc1CCNC(=O)c1c(F)cccc1Cl | – | inconclusive: 39.8 µM [cytotoxic, partial curve, poor fit]
COc1cccc(C(=O)Nc2nc3ccc(S(=O)(=O)N4CCCC4)cc3s2)c1 | – | inconclusive: 20 µM [cytotoxic, single point]
Cc1ccc(NS(=O)(=O)c2ccc(-c3cnc(C4CC4)o3)cc2)cc1N(C)C | – | inconclusive: 7.08 µM [cytotoxic, single point]
O=C(NCCc1ccccc1)c1ccc2nc(N3CCCCC3)sc2c1 | inactive: -6.65% | –
CSc1nc(-c2ccccc2Cl)nc2c1Cc1c(CO)cnc(C)c1O2 | – | inconclusive: 22.4 µM [cytotoxic, single point]
COc1ccc(C2=C(C(C)=O)Sc3nnc(-c4ccc(Cl)cc4)n3N2C(C)=O)cc1OC | – | inconclusive: 3.16 µM [cytotoxic, full curve]
CCCOc1ccc(CNC(=O)c2oc3ccc4c(c3c2C)C(=O)CC(C)(CC)O4)cc1 (stereo not given) | – | inconclusive: 39.8 µM [cytotoxic, single point]
Cc1cc(C)cc(NC(=O)CSc2nc3c([nH]c4ccccc43)c(=O)n2-c2ccc(F)cc2)c1 | – | inconclusive: 39.8 µM [cytotoxic, single point]
CCN(CC)S(=O)(=O)c1ccc2c(c1)nc(CN(C)C(=O)Nc1ccc(F)cc1)n2C | – | inconclusive: 8.91 µM [rising, full curve, poor fit]
O=C(Nc1ccc(C(=O)N2CCCCC2)cc1)c1nsc2ccccc12 | – | inconclusive: 14.1 µM [cytotoxic, partial curve]
O=C(Nc1nc2n(n1)C(c1ccccc1)C=C(c1ccccc1)N2)c1ccccc1 (stereo not given) | – | inconclusive: 31.6 µM [cytotoxic, partial curve, poor fit]
Cc1ccc(CN(C(=O)COc2ccccc2[N+](=O)[O-])c2ccccn2)cc1 | – | inconclusive: 11.2 µM [rising, partial curve, poor fit]
CCCCCOc1ccc(Cn2c(=O)oc3ccc(C)cc32)cc1OC | – | inconclusive: 20 µM [cytotoxic, single point]
O=c1c(NCc2ccccc2Cl)nccn1-c1ccccc1 | – | inconclusive: 28.2 µM [cytotoxic, single point]
CC(=O)Nc1ccc(-c2nnc3n(Cc4ccc(C)cc4)c(=O)c4ccccc4n23)cc1 | – | inconclusive: 0.0316 µM [rising, full curve, poor fit]
CCCCS(=O)(=O)c1oc(-c2cccs2)nc1S(=O)(=O)c1ccc(F)cc1 | – | active: 2.82 µM
O=C(CSc1nc2cc3ccccc3cc2[nH]1)Nc1ccc(F)cc1 | – | inconclusive: 35.5 µM [cytotoxic, single point]
Cc1cc(=O)n(Cc2ccc(F)cc2Cl)c2c1c(C)nn2C | inactive: -16.8% | –
O=C(Nc1ccc(-c2nc3ccccc3o2)c(O)c1)c1ccccc1 | – | inconclusive: 31.6 µM [cytotoxic, partial curve, poor fit]
CCOC(=O)c1noc2ncnc(Nc3cc(Cl)c(OC)cc3OC)c12 | – | inconclusive: 39.8 µM [cytotoxic, partial curve, poor fit]

From PubChem BioAssay AID1508642 (National Center for Advancing Translational Sciences (NCATS), 2021)
